{"source": "the supplement of paper PMC8728848", "test_in_all_cases": "glycan array binding signal (z-score within array); higher = stronger binding", "settings_in_all_cases": "glycan notation: IUPAC condensed, linker removed", "key": {"[1]": {"molecular_target": "Fuc(a1-2)Gal", "in_short": "(§1)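 Glycan array data came from 3228 arrays in the Consortium for Functional Glycomics database, and only arrays with an available protein sequence were kept. Glycan names were put into IUPAC-condensed notation, and columns mapping to the same glycan were averaged. The binding signal is a within-array Z-score, averaged across arrays of one protein sequence run at different concentrations or buffers and across linkers. A negative Z-score can be read as non-binding.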"}, "[2]": {"molecular_target": "Fuc(a1-2)Gal(b1-3)GalNAc", "in_short": "as §1"}, "[3]": {"molecular_target": "Fuc(a1-2)Gal(b1-3)GalNAc(b1-3)Gal", "in_short": "as §1"}, "[4]": {"molecular_target": "Fuc(a1-2)Gal(b1-3)GalNAc(b1-3)Gal(a1-4)Gal(b1-4)Glc", "in_short": "as §1"}, "[5]": {"molecular_target": "Fuc(a1-2)Gal(b1-3)GalNAc(b1-3)Gal(b1-4)Glc", "in_short": "as §1"}, "[6]": {"molecular_target": "Fuc(a1-2)Gal(b1-3)GalNAc(b1-4)[Neu5Ac(a2-3)]Gal(b1-4)Glc", "in_short": "as §1"}, "[7]": {"molecular_target": "Fuc(a1-2)Gal(b1-3)[Fuc(a1-4)]GlcNAc", "in_short": "as §1"}, "[8]": {"molecular_target": "Fuc(a1-2)Gal(b1-4)Glc", "in_short": "as §1"}, "[9]": {"molecular_target": "Fuc(a1-2)Gal(b1-4)Glc6S", "in_short": "as §1"}, "[10]": {"molecular_target": "Fuc(a1-2)Gal(b1-4)GlcNAc", "in_short": "as §1"}, "[11]": {"molecular_target": "Fuc(a1-2)Gal(b1-4)GlcNAc(b1-3)Gal(b1-4)GlcNAc", "in_short": "as §1"}, "[12]": {"molecular_target": "Fuc(a1-2)Gal(b1-4)GlcNAc(b1-3)Gal(b1-4)GlcNAc(b1-3)Gal(b1-4)GlcNAc", "in_short": "as §1"}, "[13]": {"molecular_target": "Fuc(a1-2)Gal(b1-4)GlcNAc6S", "in_short": "as §1"}, "[14]": {"molecular_target": "Fuc(a1-2)Gal(b1-4)[Fuc(a1-3)]GalNAc(b1-3)Gal(b1-4)[Fuc(a1-3)]GlcNAc", "in_short": "as §1"}, "[15]": {"molecular_target": "Fuc(a1-2)Gal(b1-4)[Fuc(a1-3)]GalNAc(b1-3)Gal(b1-4)[Fuc(a1-3)]GlcNAc(b1-3)Gal(b1-4)[Fuc(a1-3)]GalNAc", "in_short": "as §1"}, "[16]": {"molecular_target": "Fuc(a1-2)Gal(b1-4)[Fuc(a1-3)]GlcNAc", "in_short": "as §1"}, "[17]": {"molecular_target": "Fuc(a1-2)Gal6S(b1-4)Glc", "in_short": "as §1"}, "[18]": {"molecular_target": "Fuc(a1-2)Gal6S(b1-4)Glc6S", "in_short": "as §1"}, "[19]": {"molecular_target": "Fuc(a1-2)Gal6S(b1-4)GlcNAc", "in_short": "as §1"}, "[20]": {"molecular_target": "Fuc(a1-2)GlcNAc", "in_short": "as §1"}, "[21]": {"molecular_target": "Fuc(a1-2)[Gal(a1-3)]Gal", "in_short": "as §1"}, "[22]": {"molecular_target": "Fuc(a1-2)[Gal(a1-3)]Gal(b1-3)GlcNAc", "in_short": "as §1"}, "[23]": {"molecular_target": "Fuc(a1-2)[Gal(a1-3)]Gal(b1-4)Glc", "in_short": "as §1"}, "[24]": {"molecular_target": "Fuc(a1-2)[Gal(a1-3)]Gal(b1-4)GlcNAc", "in_short": "as §1"}, "[25]": {"molecular_target": "Fuc(a1-2)[Gal(a1-3)]Gal(b1-4)[Fuc(a1-3)]GlcNAc", "in_short": "as §1"}, "[26]": {"molecular_target": "Fuc(a1-2)[Gal(a1-4)]Gal(b1-4)GalNAc", "in_short": "as §1"}, "[27]": {"molecular_target": "Fuc(a1-2)[GalNAc(a1-3)]Gal", "in_short": "as §1"}, "[28]": {"molecular_target": "Fuc(a1-2)[GalNAc(a1-3)]Gal(b1-3)GlcNAc", "in_short": "as §1"}, "[29]": {"molecular_target": "Fuc(a1-2)[GalNAc(a1-3)]Gal(b1-4)Glc", "in_short": "as §1"}, "[30]": {"molecular_target": "Fuc(a1-2)[GalNAc(a1-3)]Gal(b1-4)GlcNAc", "in_short": "as §1"}, "[31]": {"molecular_target": "Fuc(a1-2)[GalNAc(a1-3)]Gal(b1-4)[Fuc(a1-3)]GlcNAc", "in_short": "as §1"}, "[32]": {"molecular_target": "Fuc(a1-2)[GalNAc(a1-4)]Gal(b1-4)GlcNAc", "in_short": "as §1"}, "[33]": {"molecular_target": "Fuc(a1-3)GlcNAc", "in_short": "as §1"}, "[34]": {"molecular_target": "Fuc(a1-3)[Gal(b1-4)]Glc6S", "in_short": "as §1"}, "[35]": {"molecular_target": "Fuc(a1-3)[Gal(b1-4)]GlcNAc", "in_short": "as §1"}, "[36]": {"molecular_target": "Fuc(a1-3)[Gal(b1-4)]GlcNAc(b1-3)Gal(b1-3)[Fuc(a1-4)]GlcNAc", "in_short": "as §1"}, "[37]": {"molecular_target": "Fuc(a1-3)[Gal(b1-4)]GlcNAc(b1-4)Gal(b1-4)[Fuc(a1-3)]GlcNAc", "in_short": "as §1"}, "[38]": {"molecular_target": "Fuc(a1-3)[Gal(b1-4)]GlcNAc(b1-4)Gal(b1-4)[Fuc(a1-3)]GlcNAc(b1-4)Gal(b1-4)[Fuc(a1-3)]GlcNAc", "in_short": "as §1"}, "[39]": {"molecular_target": "Fuc(a1-3)[Gal(b1-4)]GlcNAc6S", "in_short": "as §1"}, "[40]": {"molecular_target": "Fuc(a1-3)[Gal3S(b1-4)]Glc", "in_short": "as §1"}, "[41]": {"molecular_target": "Fuc(a1-3)[Gal3S(b1-4)]Glc6S", "in_short": "as §1"}, "[42]": {"molecular_target": "Fuc(a1-3)[Gal3S(b1-4)]GlcNAc", "in_short": "as §1"}, "[43]": {"molecular_target": "Fuc(a1-3)[Gal3S(b1-4)]GlcNAc6S", "in_short": "as §1"}, "[44]": {"molecular_target": "Fuc(a1-3)[GalNAc(b1-4)]Gal(b1-4)GlcNAc", "in_short": "as §1"}, "[45]": {"molecular_target": "Fuc(a1-4)GlcNAc", "in_short": "as §1"}}, "note": "The other results are listed elsewhere or left out."}
{"binder": "TLEC1 (Arabidopsis thaliana), Q9C5Q9 (protein) MSGASSVSSICSSNVSLIPTGPQVFINFRGKDLRKGFMSFLKPALKKEKINVFIDEQEERGKYLISLFDTIGESKIALVIFSEGYCESHWCMDELVKIKEYMDQNRLIIIPIFYRLDLDVVKDLTGKFGDNFWDLVDKYQPEPKKLHKWTEALFSVCELFSLILPKHSDISDRDFVKSIVKAVKKVQKNFFQRRNGEIEYQDFSVPACKLTITMHESPNEEAVQVTVLNEFYQMKNQSPVPSYEFKFWVDLTRPKGNVFMIDARDLSIAWSEDSNHWTWLPLPNQNSNESVMEIAFLKSASWLDVAGKFDTRYLTPRTRYEVVFVVKLEYTFEWETLVKLKLDLPNTWEKPQEQSVDMFDYISDQWLDIPVGEFTTSKKNVGEISFAMYEHECQLWKSGLFVKGVTIRPKY", "values": [{"measurement": "glycan array binding signal (z-score)", "setting": "[1]", "value": 1.05}, {"measurement": "glycan array binding signal (z-score)", "setting": "[2]", "value": 0.449}, {"measurement": "glycan array binding signal (z-score)", "setting": "[3]", "value": 0.538}, {"measurement": "glycan array binding signal (z-score)", "setting": "[4]", "value": 0.327}, {"measurement": "glycan array binding signal (z-score)", "setting": "[5]", "value": -0.058}, {"measurement": "glycan array binding signal (z-score)", "setting": "[6]", "value": -0.032}, {"measurement": "glycan array binding signal (z-score)", "setting": "[7]", "value": -0.075}, {"measurement": "glycan array binding signal (z-score)", "setting": "[8]", "value": 1.08}, {"measurement": "glycan array binding signal (z-score)", "setting": "[9]", "value": -0.534}, {"measurement": "glycan array binding signal (z-score)", "setting": "[10]", "value": 1.05}, {"measurement": "glycan array binding signal (z-score)", "setting": "[11]", "value": 0.966}, {"measurement": "glycan array binding signal (z-score)", "setting": "[12]", "value": 0.949}, {"measurement": "glycan array binding signal (z-score)", "setting": "[13]", "value": -0.349}, {"measurement": "glycan array binding signal (z-score)", "setting": "[14]", "value": 1.49}, {"measurement": "glycan array binding signal (z-score)", "setting": "[15]", "value": 1.02}, {"measurement": "glycan array binding signal (z-score)", "setting": "[16]", "value": 1.13}, {"measurement": "glycan array binding signal (z-score)", "setting": "[17]", "value": -0.075}, {"measurement": "glycan array binding signal (z-score)", "setting": "[18]", "value": 0.045}, {"measurement": "glycan array binding signal (z-score)", "setting": "[19]", "value": -0.112}, {"measurement": "glycan array binding signal (z-score)", "setting": "[20]", "value": 0.564}, {"measurement": "glycan array binding signal (z-score)", "setting": "[21]", "value": -0.268}, {"measurement": "glycan array binding signal (z-score)", "setting": "[22]", "value": -0.321}, {"measurement": "glycan array binding signal (z-score)", "setting": "[23]", "value": -0.089}, {"measurement": "glycan array binding signal (z-score)", "setting": "[24]", "value": -0.175}, {"measurement": "glycan array binding signal (z-score)", "setting": "[25]", "value": 0.143}, {"measurement": "glycan array binding signal (z-score)", "setting": "[26]", "value": -0.137}, {"measurement": "glycan array binding signal (z-score)", "setting": "[27]", "value": -0.181}, {"measurement": "glycan array binding signal (z-score)", "setting": "[28]", "value": 0.897}, {"measurement": "glycan array binding signal (z-score)", "setting": "[29]", "value": 0.249}, {"measurement": "glycan array binding signal (z-score)", "setting": "[30]", "value": 0.22}, {"measurement": "glycan array binding signal (z-score)", "setting": "[31]", "value": 0.351}, {"measurement": "glycan array binding signal (z-score)", "setting": "[32]", "value": -0.261}, {"measurement": "glycan array binding signal (z-score)", "setting": "[33]", "value": 1.82}, {"measurement": "glycan array binding signal (z-score)", "setting": "[34]", "value": -0.456}, {"measurement": "glycan array binding signal (z-score)", "setting": "[35]", "value": -0.301}, {"measurement": "glycan array binding signal (z-score)", "setting": "[36]", "value": -0.421}, {"measurement": "glycan array binding signal (z-score)", "setting": "[37]", "value": -0.048}, {"measurement": "glycan array binding signal (z-score)", "setting": "[38]", "value": -0.387}, {"measurement": "glycan array binding signal (z-score)", "setting": "[39]", "value": -0.407}, {"measurement": "glycan array binding signal (z-score)", "setting": "[40]", "value": -0.367}, {"measurement": "glycan array binding signal (z-score)", "setting": "[41]", "value": -0.083}, {"measurement": "glycan array binding signal (z-score)", "setting": "[42]", "value": -0.384}, {"measurement": "glycan array binding signal (z-score)", "setting": "[43]", "value": 0.212}, {"measurement": "glycan array binding signal (z-score)", "setting": "[44]", "value": -0.305}, {"measurement": "glycan array binding signal (z-score)", "setting": "[45]", "value": 0.192}]}
